# Reference: PubChem BioAssay AID463173 (ICCB-Longwood Screening Facility, Harvard Medical School, 2010)
# The whole screen tested about 52,000 compounds, of which about 1,700 (3.3%) were called active. No stated cut-off is given here; in the data, active means survival mostly below about 52% (no sharp cut-off); inactive means mostly above about 56%. The list shows a part of the results.
# Test system: Wild type
# Test: S. aureus survival, RN4220 and DeltatarO strains – OD600, teichoic acid synthesis inhibitors, primary screen (AID 463173)
# Settings: S. aureus RN4220 wild type/DeltatarO growth, OD600, 18 h, hits give low values, screened at 18.75 µg/mL (by protocol)
row,SMILES,survival
1,CCCN1C(C(=O)c2ccccc2)=C(OC(=O)c2ccc(OC)cc2)c2ccccc2S1(=O)=O,inactive: 81%
2,Cn1nnnc1SCCCNCc1ccc(-c2ccc(F)c(Cl)c2)o1,inactive: 77%
3,CCc1nc(-c2cc(S(=O)(=O)N3CCN(c4ccccc4F)CC3)ccc2OC)no1,inactive: 77%
4,CN(Cc1ccc(F)cc1)S(=O)(=O)c1nnc(NC(=O)c2ccccc2Cl)s1,inactive: 80%
5,Cc1cc(=O)n(CC(=O)NCc2ccc(OC(C)C)cc2)c2c1c(C)nn2-c1cccc(F)c1,inactive: 73%
6,CCc1ccc(NC(=O)CN2C(=O)CCSc3ccccc32)cc1,inactive: 86%
7,Cc1ccc(CNC(=O)C2CCCN(S(=O)(=O)c3cn(C)cn3)C2)cc1 (configuration not stated),inactive: 75%
8,O=C(NCCc1ccccc1)c1ccc(CS(=O)(=O)Cc2ccccc2Cl)o1,inactive: 79%
9,Cc1cc(C)cc(NS(=O)(=O)c2ccc(N3CCCCS3(=O)=O)cc2)c1,inactive: 71%
10,C=COCCn1c(-c2nonc2N)nc2ccccc21,inactive: 113%
11,CNC(=O)NCCN1CCCC1=O,inactive: 96%
12,O=c1c(N2CCc3ccccc3C2)csc2ccc(Cl)cc12,inactive: 65%
13,CC(C)Cc1nn2c(=O)cc(COC(=O)c3ccc(NC(=O)CCc4ccccc4)cc3)nc2s1,inactive: 73%
14,Cc1ccc(NC(=O)C(C)Sc2nc(-c3ccccc3)c(C#N)c(=O)[nH]2)c(C)c1 (configuration not stated),inactive: 86%
15,CCOc1ccc(-c2nnn(CC(=O)NC3CCCCC3)n2)cc1,inactive: 94%
16,O=C(Nc1nnc(S(=O)(=O)N2CCOCC2)s1)c1ccccc1F,inactive: 93%
17,CCOc1cc(CN2CCN(S(=O)(=O)c3ccc(C)cc3)CC2)ccc1OC,inactive: 134%
18,COc1ccc(/C=C/C(=O)Nc2sc(C)c(C)c2C(=O)O)cc1,inactive: 89%
19,COc1ccc(Nc2c(-c3ccc(N4CCOCC4)cc3)nc3ncccn23)cc1OC,inactive: 79%
20,CC(C)c1cnc2c(c1SCC(=O)N1CCCCC1)c(=O)n(C)c(=O)n2C,inactive: 153%
21,CCn1c(=O)sc2cc(NS(=O)(=O)c3ccc(C)cc3)ccc21,inactive: 71%
22,CC(=O)Nc1ccc(NC(=O)c2ccc3c(c2)NC(=O)c2ccccc2S3)cc1,inactive: 138%
23,CCOC(=O)N1CCc2c(sc3c2c(=O)n(Cc2ccccc2)c(=O)n3CC(=O)Nc2ccc(C)cc2C)C1,inactive: 90%

row,SMILES,survival
1,CCc1ccc2c(c1)NC(c1ccc(C)cc1)=NC(c1cccs1)=N2,inactive: 64%
2,CC(C)(C)C(=O)NC1CCN(CC(=O)N(C2CCCCC2)C2CCCCC2)CC1,inactive: 104%
3,COC(=O)c1cccc2c1NC(c1cccnc1)C1CC=CC21 (configuration not stated),inactive: 111%
4,CCc1ccccc1N(C)C(=O)c1cn(-c2cccc(OC)c2)c(=O)c2ccccc12,inactive: 76%
5,CCc1ccc(NC(=O)Cn2nnc(C(=O)NCc3ccc(C)cc3)c2N)cc1,inactive: 69%
6,CC1CC(NS(=O)(=O)c2cccs2)CC(C)(C)C1 (configuration not stated),inactive: 106%
7,O=S(=O)(c1ccc(Cl)c(Cl)c1)N1CCCCC1,inactive: 116%
8,O=C(Nc1ccc(F)cc1F)C1CCN(S(=O)(=O)c2ccc3[nH]c(=O)ccc3c2)CC1,inactive: 88%
9,O=C(CCc1nc2cccnc2n1-c1ccccc1)Nc1ccc(Cl)c(Cl)c1,inactive: 66%
10,O=C(OCc1ccccc1)Sc1nnc(-c2ccccc2Cl)o1,inactive: 78%
11,CC1(C(=O)NC2CCCCC2)Cc2ccccc2C(=O)N1Cc1ccccc1Cl (configuration not stated),inactive: 38%
12,COc1cc(NC(=O)CCc2nc3cccnc3n2Cc2cccs2)cc(OC)c1OC,inactive: 83%
13,CCc1ccc(OCc2nc(-c3ccc(OC)c(OC)c3)no2)c(Br)c1,inactive: 38%
14,CC(=O)NC1C(=O)N(c2ccccc2)N=C1C (configuration not stated),inactive: 112%
15,CCOc1ccc(C(=O)NCC(c2ccc3c(c2)OCO3)N2CCOCC2)cc1 (configuration not stated),inactive: 49%
16,CN(C)c1ccc(C2C=C(c3ccccc3)Nc3nnnn32)cc1 (configuration not stated),inactive: 66%
17,CCc1cccc(NC(=O)C2CCCN(c3ncccn3)C2)c1 (configuration not stated),inactive: 105%
18,CC(=O)c1ccc(N2C(=O)N(Cc3ccccc3C#N)c3ccccc3S2(=O)=O)cc1,inactive: 81%
19,Cc1c(C(=O)Nc2ccc(F)c(Cl)c2)oc2ccc(S(=O)(=O)N(C)C3CCCCC3)cc12,inactive: 99%
20,Cc1ccc(-n2ncc(C(=O)Nc3ccc4c(c3)OCO4)c2C2CCN(C(=O)OC(C)(C)C)CC2)c(C)c1,inactive: 128%
21,COc1cc(-c2noc(-c3ccc(NCc4ccco4)c([N+](=O)[O-])c3)n2)cc(OC)c1OC,inactive: 78%
22,Cc1oc2ccc(O)c(CN3CCCCC3)c2c1C(=O)Nc1cccc(C(F)(F)F)c1,inactive: 69%
23,Cc1cn2c(=O)cc(COc3ccc(NC(=O)c4ccccc4C)cc3)nc2s1,inactive: 138%

row,SMILES,survival
1,COc1ccc(NCc2nnc(SCC(N)=O)n2-c2ccc(C)cc2)cc1,inactive: 106%
2,CCOC(=O)c1nc(Nc2ccccc2OC)c2ccccc2n1,inactive: 70%
3,CCCCN(CC)C(=O)c1cc2c(=O)n3ccccc3nc2n1C,inactive: 81%
4,CCCOc1ccc(-c2nc(N3CCCCC3)c3ccccc3n2)cc1,active: 0%
5,Cc1nn(C)c2c1c(C(F)(F)F)cc(=O)n2CC(=O)N1CCCCC1C (configuration not stated),inactive: 65%
6,O=C(NCC(c1ccc2c(c1)OCO2)N1CCOCC1)C(=O)Nc1ccc(F)cc1F (configuration not stated),inactive: 129%
7,O=S(=O)(NCCc1ccccc1)c1cccs1,inactive: 92%
8,COc1ccc(N(Cc2cccs2)C(=O)c2ccc(C(C)(C)C)cc2)cc1,inactive: 80%
9,COc1cc2[nH]c(=O)n(Cc3ccc(C(=O)N4CCN(c5cc(Cl)ccc5C)CC4)cc3)c(=O)c2cc1OC,inactive: 77%
10,O=C(CN1C(=O)CC(c2ccco2)Sc2ccccc21)Nc1ccc(C(F)(F)F)cc1 (configuration not stated),inactive: 96%
11,C1Cc2nnc3c4c(nnc(c24)C1)CCC3,inactive: 93%
12,COc1nc2nonc2nc1OC,inactive: 112%
13,O=C(Cn1cnc2c(oc3ccccc32)c1=O)Nc1ccc(OC(F)(F)F)cc1,inactive: 89%
14,COc1ccccc1CNC(=O)Cc1csc2nc(-c3ccccc3)cn12,inactive: 70%
15,CC1(CCC(=O)O)NNC(=S)NN1,inactive: 101%
16,Cc1ccc(CNC(=O)c2ccc3c(c2)N(Cc2ccccc2)C(=O)c2ccccc2S3(=O)=O)cc1,inactive: 103%
17,Cc1cccc(CCNC(=O)c2cnc3c(C)cccn3c2=O)c1,inactive: 70%
18,CC(C)(C)c1ccc(S(=O)(=O)c2cn(CC(=O)Nc3ccccc3)c3ccccc3c2=O)cc1,inactive: 75%
19,CCOC(=O)c1ccc(NC(=O)c2c(C)nn(-c3ccc(F)cc3)c2-n2cccc2)cc1,inactive: 77%
20,Cc1ccc2c(c1)N(C(=O)C1CCN(S(=O)(=O)c3c(C)noc3/C=C/c3ccccc3F)CC1)CCO2,inactive: 68%
21,CCn1c(SCc2ccc(F)cc2Cl)nnc1-c1nonc1NC(C)=O,inactive: 104%
22,COC(=O)C1CCN(CC(=O)Nc2cc(C)c3c(=O)oc4ccccc4c3n2)CC1,inactive: 82%
23,COc1ccc(N(C(=O)c2cccc(C)c2)S(=O)(=O)c2ccc(C)cc2)cc1,inactive: 73%

row,SMILES,survival
1,O=C(Nc1nnc(S(=O)(=O)N2CCCc3ccccc32)s1)c1cccc(F)c1,inactive: 13%
2,O=C(CCC1N=C2c3ccccc3N=C(SCc3ccccc3F)N2C1=O)NCCc1ccccc1 (configuration not stated),inactive: 82%
3,Cc1cc(C)c(NC(=O)Cn2ccn(-c3cccc(Cl)c3)c(=O)c2=O)c(C)c1,inactive: 83%
4,Fc1ccc(-n2ncc3c(N4CCC(Cc5ccccc5)CC4)ncnc32)cc1,inactive: 57%
5,CCOc1ccccc1CNC(=O)c1ccc(NC(=O)N2CCSc3ncccc32)cc1,inactive: 63%
6,COc1ccc(CNC(=O)CCNS(=O)(=O)c2cccc3nsnc23)cc1,inactive: 57%
7,COc1ccc2c(Sc3ccccc3)c(C(=O)NCCCN3CCCCC3)[nH]c2c1,inactive: 73%
8,CN(C)c1ncnc(Cl)c1N,inactive: 101%
9,COc1ccc(/C=C/C(=O)Nc2nc3n(n2)C(c2ccccc2)C=C(c2ccc(Cl)cc2)N3)cc1 (configuration not stated),inactive: 82%
10,O=C(CSC1=NC(=O)C(c2ccccc2)C(=O)N1)Nc1nncs1 (configuration not stated),inactive: 107%
11,COc1ccc(OC)c(NC(=O)c2ccccc2)c1,inactive: 105%
12,COc1ccc(OC)c(CNC(=O)Cn2nc(C)c3nn(-c4ccc(Cl)cc4)c(C)c3c2=O)c1,inactive: 88%
13,COc1ccc2oc(=O)c(-c3cn4c(n3)sc3cc(OC)ccc34)cc2c1,inactive: 53%
14,COc1cccc(-c2nnc(-c3ccc(C)o3)o2)c1,inactive: 114%
15,CCc1ccccc1NC(=O)Nc1nnc(N(C)Cc2ccccc2)s1,inactive: 82%
16,CCOc1ccc(C(=O)N2CCC(C)CC2)cc1,inactive: 98%
17,COc1ccc(NC(=O)c2cc(S(=O)(=O)N3CCCCCC3)cn2C)cc1Cl,inactive: 68%
18,Clc1ccc(N2CCN(c3ncnc4c3cnn4-c3ccccc3)CC2)cc1Cl,inactive: 76%
19,Cc1ccc(NCc2nnc(SCC(=O)N(Cc3ccccc3)C(C)(C)C)o2)c(C)c1,inactive: 123%
20,Cn1c(=O)c2c(nc(NN=C3CCCCC3)n2C)n(C)c1=O,inactive: 117%
21,COC(=O)c1ccc(NC(=O)n2ncc3c(C)cccc32)cc1,inactive: 85%
22,CCOC(=O)c1[nH]c2c(c1Cc1ccccc1C)C(=O)CC(c1ccccc1)C2 (configuration not stated),inactive: 95%
23,CC1=C(c2ccc(C(C)C)cc2)S(=O)(=O)N=C1N1CCC(C(=O)Nc2ccc(C)cc2)CC1,inactive: 60%
